# Assay results: the supplement of paper PMC8728848
# The other results are listed elsewhere or left out.
# Tests used:
# Assay in all cases: glycan array binding signal (z-score within array); higher = stronger binding
# Conditions in all cases: glycan notation: IUPAC condensed, linker removed
# [1] = molecular target: Neu5Ac(a2-6)Gal(b1-4)GlcNAc(b1-2)Man(a1-3)[Man(a1-6)]Man(b1-4)GlcNAc(b1-4)GlcNAc
# Procedure, shortened: (§1)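 Glycan array binding is given as a within-array Z-score, which can be read as non-binding when negative. The arrays, 3228 of them, came from the Consortium for Functional Glycomics database and were retained only where the protein sequence was available. Z-scores were averaged across arrays of the same protein sequence at different concentrations or buffers and across linkers.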
# [2] = molecular target: Neu5Ac(a2-6)Gal(b1-4)GlcNAc(b1-2)Man(a1-3)[Neu5Ac(a2-3)Gal(b1-4)GlcNAc(b1-2)Man(a1-6)]Man(b1-4)GlcNAc(b1-4)GlcNAc
# Procedure, shortened: as §1
# [3] = molecular target: Neu5Ac(a2-6)Gal(b1-4)GlcNAc(b1-2)Man(a1-3)[Neu5Ac(a2-6)Gal(b1-4)GlcNAc(b1-2)Man(a1-6)]Man(b1-4)GlcNAc(b1-4)GlcNAc
# Procedure, shortened: as §1
# [4] = molecular target: Neu5Ac(a2-6)Gal(b1-4)GlcNAc(b1-2)Man(a1-3)[Neu5Ac(a2-6)Gal(b1-4)GlcNAc(b1-2)Man(a1-6)]Man(b1-4)GlcNAc(b1-4)[Fuc(a1-6)]GlcNAc
# Procedure, shortened: as §1
# [5] = molecular target: Neu5Ac(a2-6)Gal(b1-4)GlcNAc(b1-2)Man(a1-6)Man(b1-4)GlcNAc(b1-4)GlcNAc
# Procedure, shortened: as §1
# [6] = molecular target: Neu5Ac(a2-6)Gal(b1-4)GlcNAc(b1-2)Man(a1-6)[Gal(b1-4)GlcNAc(b1-2)Man(a1-3)]Man(b1-4)GlcNAc(b1-4)GlcNAc
# Procedure, shortened: as §1
# [7] = molecular target: Neu5Ac(a2-6)Gal(b1-4)GlcNAc(b1-2)Man(a1-6)[GlcNAc(b1-2)Man(a1-3)]Man(b1-4)GlcNAc(b1-4)GlcNAc
# Procedure, shortened: as §1
# [8] = molecular target: Neu5Ac(a2-6)Gal(b1-4)GlcNAc(b1-2)Man(a1-6)[Man(a1-3)]Man(b1-4)GlcNAc(b1-4)GlcNAc
# Procedure, shortened: as §1
# [9] = molecular target: Neu5Ac(a2-6)Gal(b1-4)GlcNAc(b1-2)[Neu5Ac(a2-6)Gal(b1-4)GlcNAc(b1-4)]Man(a1-3)[GlcNAc(b1-4)][Neu5Ac(a2-6)Gal(b1-4)GlcNAc(b1-2)[Neu5Ac(a2-6)Gal(b1-4)GlcNAc(b1-6)]Man(a1-6)]Man(b1-4)GlcNAc(b1-4)GlcNAc
# Procedure, shortened: as §1
# [10] = molecular target: Neu5Ac(a2-6)Gal(b1-4)GlcNAc(b1-2)[Neu5Ac(a2-6)Gal(b1-4)GlcNAc(b1-4)]Man(a1-3)[GlcNAc(b1-4)][Neu5Ac(a2-6)Gal(b1-4)GlcNAc(b1-4)Man(a1-6)]Man(b1-4)GlcNAc(b1-4)GlcNAc
# Procedure, shortened: as §1
# [11] = molecular target: Neu5Ac(a2-6)Gal(b1-4)GlcNAc(b1-2)[Neu5Ac(a2-6)Gal(b1-4)GlcNAc(b1-6)]Man(a1-6)[Neu5Ac(a2-6)Gal(b1-4)GlcNAc(b1-2)Man(a1-3)][GlcNAc(b1-4)]Man(b1-4)GlcNAc(b1-4)GlcNAc
# Procedure, shortened: as §1
# [12] = molecular target: Neu5Ac(a2-6)Gal(b1-4)GlcNAc(b1-3)Gal(b1-3)GlcNAc
# Procedure, shortened: as §1
# [13] = molecular target: Neu5Ac(a2-6)Gal(b1-4)GlcNAc(b1-3)Gal(b1-4)GlcNAc
# Procedure, shortened: as §1
# [14] = molecular target: Neu5Ac(a2-6)Gal(b1-4)GlcNAc(b1-3)Gal(b1-4)GlcNAc(b1-2)Man(a1-3)[Neu5Ac(a2-6)Gal(b1-4)GlcNAc(b1-3)Gal(b1-4)GlcNAc(b1-2)Man(a1-6)]GalNAc
# Procedure, shortened: as §1
# [15] = molecular target: Neu5Ac(a2-6)Gal(b1-4)GlcNAc(b1-3)Gal(b1-4)GlcNAc(b1-3)Gal(b1-4)GlcNAc
# Procedure, shortened: as §1
# [16] = molecular target: Neu5Ac(a2-6)Gal(b1-4)GlcNAc(b1-3)Gal(b1-4)GlcNAc(b1-3)Gal(b1-4)GlcNAc(b1-2)Man(a1-3)[Neu5Ac(a2-6)Gal(b1-4)GlcNAc(b1-3)Gal(b1-4)GlcNAc(b1-3)Gal(b1-4)GlcNAc(b1-2)Man(a1-6)]GalNAc
# Procedure, shortened: as §1
# [17] = molecular target: Neu5Ac(a2-6)Gal(b1-4)GlcNAc(b1-3)Gal(b1-4)GlcNAc(b1-3)GalNAc
# Procedure, shortened: as §1
# [18] = molecular target: Neu5Ac(a2-6)Gal(b1-4)GlcNAc(b1-3)Gal(b1-4)GlcNAc(b1-3)[Neu5Ac(a2-6)Gal(b1-4)GlcNAc(b1-3)Gal(b1-4)GlcNAc(b1-6)]GalNAc
# Procedure, shortened: as §1
# [19] = molecular target: Neu5Ac(a2-6)Gal(b1-4)GlcNAc(b1-3)Gal(b1-4)GlcNAc(b1-6)[Gal(b1-3)]GalNAc
# Procedure, shortened: as §1
# [20] = molecular target: Neu5Ac(a2-6)Gal(b1-4)GlcNAc(b1-3)Gal(b1-4)[Fuc(a1-3)]GlcNAc(b1-3)Gal(b1-4)[Fuc(a1-3)]GlcNAc
# Procedure, shortened: as §1
# [21] = molecular target: Neu5Ac(a2-6)Gal(b1-4)GlcNAc(b1-3)GalNAc
# Procedure, shortened: as §1
# [22] = molecular target: Neu5Ac(a2-6)Gal(b1-4)GlcNAc(b1-3)[Neu5Ac(a2-6)Gal(b1-4)GlcNAc(b1-6)]GalNAc
# Procedure, shortened: as §1
# [23] = molecular target: Neu5Ac(a2-6)Gal(b1-4)GlcNAc(b1-6)GalNAc
# Procedure, shortened: as §1
# [24] = molecular target: Neu5Ac(a2-6)Gal(b1-4)GlcNAc(b1-6)[Gal(b1-3)GlcNAc(b1-3)]Gal(b1-4)Glc
# Procedure, shortened: as §1
# [25] = molecular target: Neu5Ac(a2-6)Gal(b1-4)GlcNAc(b1-6)[Gal(b1-3)]GalNAc
# Procedure, shortened: as §1
# [26] = molecular target: Neu5Ac(a2-6)Gal(b1-4)GlcNAc6S
# Procedure, shortened: as §1
# Neu5Ac(a2-6)GalNAc = molecular target: Neu5Ac(a2-6)GalNAc
# Procedure, shortened: as §1
# [27] = molecular target: Neu5Ac(a2-6)GalNAc(b1-4)GlcNAc
# Procedure, shortened: as §1
# [28] = molecular target: Neu5Ac(a2-6)GalNAc(b1-4)GlcNAc6S
# Procedure, shortened: as §1
# [29] = molecular target: Neu5Ac(a2-6)GlcNAc(b1-4)GlcNAc
# Procedure, shortened: as §1
# [30] = molecular target: Neu5Ac(a2-6)GlcNAc(b1-4)GlcNAc(b1-4)GlcNAc
# Procedure, shortened: as §1
binder,measurement,setting,value
PV12658A-bvu-496-32-496 (Bacteroides vulgatus) (protein) DLDGAITTPAAVELALNGIYYSLPGNGFNVIFPTVSGSFKAGTMWRQEIVSAGNAVYYSERMLPTLSFSDATEWDADYAVIKNANFLETACNRMSDGEFSGNRRAEVLGEIAYLRALAYFNILVRYCEFWDMNSEYGVVMRNEAPSVSNALKARSSVADSYQYILDQLEIAIEKAPDWKKLSQASKEAAKALKARVLLYAGKYTEAVAAVNDAIDTNSPLPEANYGDVFDKFSTTKEILFARVFDQKDATNTSTRQQCYGNSPTKKQGYWGPTNEYVELVGDDPRADAIFSKVDSLMDSRSSAVAYNLKSVKKLLNDANDMPVIFSRVSELYLIKAEALYRSGASISEAYAPIRKLRERAGAEIILPANNEELETAIFNEWMLELSFENWHEWFAMIRFAGYTEKPDFTRLLALNKTLREALEKEYEKSEAQGDNYYQRIIDRRIDAIPSSEISSNLECKQNPGY,glycan array binding signal (z-score),[1],-0.041
same,glycan array binding signal (z-score),[2],-0.164
same,glycan array binding signal (z-score),[3],-0.14
same,glycan array binding signal (z-score),[4],-0.219
same,glycan array binding signal (z-score),[5],0.109
same,glycan array binding signal (z-score),[6],-0.479
same,glycan array binding signal (z-score),[7],0.599
same,glycan array binding signal (z-score),[8],-0.19
same,glycan array binding signal (z-score),[9],0.035
same,glycan array binding signal (z-score),[10],-0.358
same,glycan array binding signal (z-score),[11],2.58
same,glycan array binding signal (z-score),[12],-0.352
same,glycan array binding signal (z-score),[13],-0.35
same,glycan array binding signal (z-score),[14],10.6
same,glycan array binding signal (z-score),[15],-0.31
same,glycan array binding signal (z-score),[16],1.36
same,glycan array binding signal (z-score),[17],-0.476
same,glycan array binding signal (z-score),[18],-0.085
same,glycan array binding signal (z-score),[19],-0.327
same,glycan array binding signal (z-score),[20],0.013
same,glycan array binding signal (z-score),[21],-0.416
same,glycan array binding signal (z-score),[22],-0.274
same,glycan array binding signal (z-score),[23],-0.454
same,glycan array binding signal (z-score),[24],0.023
same,glycan array binding signal (z-score),[25],0.221
same,glycan array binding signal (z-score),[26],-0.402
same,glycan array binding signal (z-score),Neu5Ac(a2-6)GalNAc,-0.283
same,glycan array binding signal (z-score),[27],-0.163
same,glycan array binding signal (z-score),[28],-0.307
same,glycan array binding signal (z-score),[29],-0.473
same,glycan array binding signal (z-score),[30],-0.359
